Measured values: US20250313611A1 (VIB VZW, published 2025)

Assays:
Experiment in all cases: cell-based or functional assay
[1] = molecular target: T1, spike protein of authentic SARS-COV-2 Omicron BA.5 virus (SARS-CoV-2 Omicron BA.5)
[2] = molecular target: T2, spike protein of authentic SARS-COV-2 Omicron BA.2 virus (SARS-CoV-2 Omicron BA.2)
[3] = molecular target: T1, spike protein of authentic SARS-COV-2 …; remark: listed apart in the source
[4] = molecular target: T2, spike protein of authentic SARS-COV-2 …; remark: listed apart in the source
[5] = molecular target: spike protein of authentic SARS-COV-2 Delta virus (SARS-CoV-2 Delta)
[6] = molecular target: spike protein of authentic SARS-COV-2 Omicron BA.1 virus (SARS-CoV-2 Omicron BA.1)
[7] = molecular target: T1, spike protein of authentic SARS-COV-2 …; remark: listed apart in the source
[8] = molecular target: T2, spike protein of authentic SARS-COV-2 …; remark: listed apart in the source

B1: huR3DC23-Fc_LS (Fc fusion)
chain: DVQLVESGGGLVQPGGSLRLSCAVSGRIFSTYTMGWFRQAPGKEREFVAAVRWGAGTIYYADSVKGRFTISRDNAKNTVYLQMNSLRPEDTAVYYCGAAYVSKANYGSLWYQDSRRYDYWGQGTLVTVSSGGGGSGGGGS[left out - human IgG1 Fc with changes]
B1 was tested, and the “geometric mean IC50 (ng/mL), live virus microneutralisation” value [1] was 3.6 ng/mL, the “geometric mean IC50 (ng/mL), live virus microneutralisation” value [2] was 2.8 ng/mL and the “geometric mean IC50 (ng/mL), live virus method” value [3] was 3.6 ng/mL. The “geometric mean IC50 (ng/mL), live virus method” value [4] was 2.8 ng/mL, the “GM IC50 in ng/mL (GSD factor), live virus microneutralisation” value (from here on “GM IC50 in ng/mL (GSD factor)”) [5] was 3.6 ng/mL and the “GM IC50 in ng/mL (GSD factor)” value [6] was 3.8 ng/mL. For the same binder, the “GM IC50 in ng/mL (GSD factor)” value [7] was 3.6 ng/mL and the “GM IC50 in ng/mL (GSD factor)” value [8] was 2 ng/mL.
